The results in this text go back to US20180021277A1, “ANTI-VIRULENCE COMPOSITIONS AND METHODS” (priority 2012, published 2018).

For data set [1], the system named is MRSA strain USA300. The data set can be described thus: microbe, parasite or virus in culture. The conditions noted are these: DMSO control = 100; for hemolysis at 10 µg/mL / hemolysis at 1 µg/mL: Staphylococcus aureus, Erythrocyte, in Oryctolagus cuniculus.
Data set [2] deals with MRSA strain USA300. The data set can be described thus: microbe, parasite or virus in culture. The conditions noted are these: for Growth: DMSO control = 100; for activity at 10 µg/mL / activity at 1 µg/mL: Staphylococcus aureus, read-out: Growth.

Compound `O=C(COc1ccc(F)cc1F)c1c(O)cc(O)cc1O` [4c-12] yielded a Hemolysis in data set [1] (10 μg/mL compound) of 44.0 ± 1.7%. Moreover, the Growth in data set [2] (10 μg/mL compound) is listed as 119.3%.

`O=C(COc1c(F)cccc1F)c1c(O)cc(O)cc1O` [4c-13] came in with a Hemolysis in data set [1] (10 μg/mL compound) of 23.0 ± 3.1%. This compound showed a Growth in data set [2] (10 μg/mL compound) of 114.7%.

On to `O=C(COc1ccc(F)c(F)c1)c1c(O)cc(O)cc1O` [4c-14], for which the hemolysis at 10 µg/mL in data set [1] (10 μg/mL compound) turned out to be 37.8 ± 2.8%. In addition, the activity at 10 µg/mL in data set [2] was determined as 113%.

Regarding `O=C(COc1cc(F)c(F)cc1F)c1c(O)cc(O)cc1O` [4c-16], the Hemolysis in data set [1] (10 μg/mL compound) stood at 21.7 ± 2.3%. In data set [2] (10 μg/mL compound), the Growth amounted to 111%.

Consider `CC(C)c1ccc(OCC(=O)c2c(O)cc(O)cc2O)cc1` [4c-19], for which the hemolysis at 1 µg/mL in data set [1] (1 μg/mL compound) was found to be 127 ± 13.6%. Moreover, the hemolysis at 10 µg/mL in data set [1] (10 μg/mL compound) is 7.1 ± 0.3%. For the same compound, in data set [2], the activity at 1 µg/mL turned out to be 111% and the activity at 10 µg/mL was 95.9%.

`CC(C)(C)c1ccc(OCC(=O)c2c(O)cc(O)cc2O)cc1` [4c-20] had a hemolysis at 1 µg/mL in data set [1] (1 μg/mL compound) of 87 ± 0.5%. In data set [1] (10 μg/mL compound), the hemolysis at 10 µg/mL was determined as 0.7%. Besides, in data set [2], the activity at 1 µg/mL was 101% and the activity at 10 µg/mL turned out to be 2%.

The compound `O=C(COc1ccc(-c2ccccc2)cc1)c1c(O)cc(O)cc1O` [4c-21] displayed a hemolysis at 1 µg/mL in data set [1] (1 μg/mL compound) of 114 ± 16.9%. The compound also displayed a hemolysis at 10 µg/mL in data set [1] (10 μg/mL compound) of 3 ± 0.1%. In data set [2], the activity at 1 µg/mL worked out at 103% and the activity at 10 µg/mL stood at 1.9%.

For `COc1ccc(OCC(=O)c2c(O)cc(O)cc2O)cc1` [4c-26], the Hemolysis in data set [1] (10 μg/mL compound) is reported as 70.5 ± 7.1%. The compound also had a Growth in data set [2] (10 μg/mL compound) of 106.5%.

The compound `COC(=O)c1ccccc1OCC(=O)c1c(O)cc(O)cc1O` [4c-27] yielded a hemolysis at 10 µg/mL in data set [1] (10 μg/mL compound) of 90 ± 1%. Also, the activity at 10 µg/mL in data set [2] is 104%.

On to `COC(=O)c1cccc(OCC(=O)c2c(O)cc(O)cc2O)c1` [4c-28], for which, in data set [1] (10 μg/mL compound), the hemolysis at 10 µg/mL was determined as 90.5 ± 5.9%. In data set [2], the activity at 10 µg/mL stood at 103%.

`COC(=O)c1ccc(OCC(=O)c2c(O)cc(O)cc2O)cc1` [4c-29] yielded a Hemolysis in data set [1] (10 μg/mL compound) of 103.3 ± 1.1%. In addition, in data set [2] (10 μg/mL compound), the Growth was determined as 98.2%.

In the case of `Cc1cc(C(=O)COc2cccc(F)c2)c(O)cc1O` [4d-1], the hemolysis at 10 µg/mL in data set [1] (10 μg/mL compound) was 53 ± 13.2%. For the same compound, the activity at 10 µg/mL in data set [2] worked out at 103%.

As for `Cc1cc(C(=O)COc2cccc(Cl)c2)c(O)cc1O` [4d-3], the hemolysis at 1 µg/mL in data set [1] (1 μg/mL compound) was found to be 204 ± 45.4%. The compound further displayed a hemolysis at 10 µg/mL in data set [1] (10 μg/mL compound) of 8.4 ± 1.4%. Moreover, in data set [2], the activity at 1 µg/mL was found to be 102% and the activity at 10 µg/mL came out at 103%.

Turning to `Cc1cc(C(=O)COc2ccc(Cl)cc2)c(O)cc1O` [4d-4], the Hemolysis in data set [1] (1 μg/mL compound) is listed as 169.3 ± 23.8%; in data set [1] (10 μg/mL compound), 12.9 ± 2.8%. The Growth stood at 99.5% in data set [2] (1 μg/mL compound) and 103.8% in data set [2] (10 μg/mL compound).

As to `Cc1cc(C(=O)COc2ccccc2F)c(O)cc1O` [4d-5], in data set [1] (10 μg/mL compound), the Hemolysis is on record as 34.1 ± 3.6%. This compound also showed a Growth in data set [2] (10 μg/mL compound) of 103.6%.

Compound `Cc1cc(C(=O)COc2ccc(F)cc2)c(O)cc1O` [4d-6] came in with a hemolysis at 10 µg/mL in data set [1] (10 μg/mL compound) of 33.6 ± 10.2%. In addition, the activity at 10 µg/mL in data set [2] was 104%.

In the case of `Cc1cc(C(=O)COc2ccc(Br)cc2)c(O)cc1O` [4d-7], the hemolysis at 10 µg/mL in data set [1] (10 μg/mL compound) worked out at 29.5 ± 2.9%. The activity at 10 µg/mL in data set [2] was 103%.

In data set [1] (10 μg/mL compound), `Cc1cc(C(=O)COc2ccccc2C)c(O)cc1O` [4d-9] registered a hemolysis at 10 µg/mL of 43 ± 8.4%. Moreover, in data set [2], the activity at 10 µg/mL stood at 102%.

`Cc1ccc(OCC(=O)c2cc(C)c(O)cc2O)cc1` [4d-11] returned a hemolysis at 1 µg/mL in data set [1] (1 μg/mL compound) of 248 ± 41.9%. Besides, the hemolysis at 10 µg/mL in data set [1] (10 μg/mL compound) is 14.3 ± 2.8%. Further, in data set [2], the activity at 1 µg/mL came out at 103% and the activity at 10 µg/mL is 84.2%.
